The list shows a part of the results.
Columns and labels:
HSkMC = human skeletal muscle cells; test: cytotoxicity call (relative viability < 0.9); conditions: 10 µM
HepG2 = test: cytotoxicity call (relative viability < 0.9); conditions: 10 µM
S. aureus RN4220 = test: growth inhibition call (relative growth <= 0.2); conditions: 50 µM

Compound	cytotoxicity call (HSkMC)	cytotoxicity call (HepG2)	growth inhibition call (S. aureus RN4220)
COc1ccc(S(=O)(=O)N[C@H]2C=C[C@@H](CC(=O)N3CCC(Cc4ccccc4)CC3)O[C@H]2CO)cc1	inactive	inactive	inactive
C[C@H]1CN([C@@H](C)CO)C(=O)CCCn2nncc2CO[C@@H]1CN(C)C(=O)Nc1ccc2c(c1)OCO2	inactive	inactive	inactive
CC(C)NC(=O)Nc1ccc2c(c1)C(=O)N([C@@H](C)CO)C[C@@H](C)[C@@H](CN(C)Cc1ccc(-c3ccccc3)cc1)O2	inactive	active	inactive
C[C@@H]1CCCCO[C@@H](CN(C)C(=O)Nc2ccc(C(F)(F)F)cc2)[C@H](C)CN([C@H](C)CO)C(=O)c2cc(NS(=O)(=O)c3ccc(Cl)cc3)ccc2O1	active	inactive	inactive
CC(C)C[C@@H](C(=O)N[C@@H](Cc1ccc(OCc2ccccc2)cc1)C(=O)NC(C)(C)C)N(C)Cc1ccc(C(C)(C)C)cc1	inactive	inactive	inactive
C[C@@H]1CN([C@H](C)CO)C(=O)c2cc(NC(=O)Nc3ccc(C(F)(F)F)cc3)ccc2O[C@@H]1CN(C)Cc1ccccc1	inactive	active	inactive
C[C@H]1CN([C@@H](C)CO)C(=O)c2cc(Br)cnc2O[C@@H]1CN(C)Cc1ccc2c(c1)OCO2	inactive	inactive	inactive

— the antibiotic and cytotoxicity screens of Wong et al. (2023)
